“And” between values parts separate entries of the source, which are not always exact repeats. Equal entries are not always repeated. Hit rate of the full screen: of about 150,000 compounds, about 6,500 (4.3%) were called active. The shares of active, inactive and inconclusive entries below differ from those in the screen. The call rests on the fitted dose curve; in most records, active means well fitted inhibition curve with a large enough effect (not every such curve was filed as active); inconclusive means small, poorly fitted or top-dose-only effect, or another doubt; inactive means no such curve, though single readings can be large or run the other way. Potencies of inconclusive entries are left out as doubtful fits.
What follows are compounds tested against 15-hydroxyprostaglandin dehydrogenase [NAD(+)] (Homo sapiens) (UniProt P15428) (assay: qHTS Assay for Inhibitors of HPGD (15-Hydroxyprostaglandin Dehydrogenase)). Conditions: purified HPGD, NADH fluorescence kinetic, PGE2 substrate; activity change, negative = inhibition: stronger effect = lower value.
Chain of UniProt P15428 (P15428 whole entry, looked up): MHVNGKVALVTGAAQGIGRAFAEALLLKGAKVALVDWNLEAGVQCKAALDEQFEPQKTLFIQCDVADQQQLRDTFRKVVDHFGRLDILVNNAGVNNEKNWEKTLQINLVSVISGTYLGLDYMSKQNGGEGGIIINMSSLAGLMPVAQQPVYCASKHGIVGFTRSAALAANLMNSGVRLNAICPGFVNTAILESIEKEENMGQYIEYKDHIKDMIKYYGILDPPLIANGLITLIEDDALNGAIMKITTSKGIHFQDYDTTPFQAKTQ
Method in brief: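 NADH formation kinetics: reaction with 30 uM PGE2 and 1 mM NAD+ (final), 20 nM enzyme, Tris-HCl pH 8 with Tween 20, after 15 min compound preincubation at room temperature. Fluorescence change, last versus first of five reads.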
On the % scale 0 is the no-effect control and ±100 the full control effect; potency means the concentration at half of the fitted maximal effect; tags describe the fitted curve by direction and shape.

Compound | activity change, negative = inhibition | Potency
Cc1cc(N)c2ccccc2[n+]1CCCCCCCCCCCCCC[n+]1c(C)cc(N)c2ccccc21 | inactive: 17.2% | 
CCOC(=O)c1c(NC(=O)CSc2nnc(-c3ccccc3C)n2C)sc(C(C)=O)c1C |  | inconclusive [inhibitor, single point]
N#CCCn1cc(C=C(C#N)C#N)c(-c2ccc(-c3ccccc3)cc2)n1 |  | inconclusive [inhibitor, partial curve]
Cc1ccc2cc(-c3noc(C(C)(C)C)n3)c(=O)[nH]c2c1 |  | inconclusive [inhibitor, partial curve]
O=C(CN1CCOCC1)Nc1nc2ccc(F)cc2s1 | inactive: -8.66% | 
O=C(NCCN1CCOCC1)c1cc2sccc2n1Cc1ccc(Cl)cc1 |  | active: 15.8 µM
COc1ccc(C(=O)CSc2n[nH]c(-c3ccco3)n2)cc1 |  | active: 3.55 µM
Cc1onc(-c2ccccc2Cl)c1C(=O)Nc1nnc(-c2ccc(Cl)cc2Cl)s1 |  | inconclusive [inhibitor, partial curve]
COCc1cc(C)nc2sc(C(=O)N3CCCCC3)c(N)c12 |  | active: 0.251 µM
CCOc1cc(C2NN=C(c3ccccc3)S2)ccc1OCc1ccc(F)cc1 (stereo not given) |  | inconclusive [inhibitor, partial curve]
Cc1cccc(C(=O)N/N=C/c2ccc3c(c2)OCO3)n1 |  | inconclusive [inhibitor, partial curve]
Cc1ccc(-c2c(C(=O)N3CCOCC3)oc(=O)c3ccccc23)cc1 | inactive: -12.2% | 
CCn1c(=O)n(CCOC)c(=O)c2c3c(sc21)CCCC3 | inactive: -12.8% | 
O=C(COC(=O)c1ccccc1)Nc1cccc(S(=O)(=O)NC2=NCCCCC2)c1 | inactive: -9.06% | 
N#Cc1c(N)nc(SCC(=O)NCCc2ccccc2)c(C#N)c1-c1cccs1 |  | inconclusive [inhibitor, partial curve]
O=C(c1ccc2c(c1)[nH]c(=S)n1c3ccccc3nc21)N1CCN(c2ncccn2)CC1 |  | inconclusive [inhibitor, partial curve]
S=C(NCc1ccco1)Nc1cccc(Cl)c1 |  | active: 11.2 µM
Nc1c(C(=O)NC2CCCCC2)c2nc3ccccc3nc2n1/N=C/c1ccco1 |  | inconclusive [inhibitor, partial curve]
c1ccc(-c2cnc(SCCN3CCOCC3)n2CC2CCCO2)cc1 (stereo not given) | inactive: -7.77% | 
CCCCCCCCCCCCC/C=C/[C@@H](O)[C@H](CO)NC(=O)CCCCCCCCCCCCCCC | inactive: -11.5% | 
COc1ccccc1N1CC(O)=C(c2nc3ccccc3s2)C1=N |  | inconclusive [inhibitor, partial curve]
CCOC(=O)c1c(NC2=NS(=O)(=O)c3ccccc32)sc2c1CCC(C)C2 (stereo not given) |  | inconclusive [inhibitor, partial curve]
C/C(=N\Nc1nc2c(s1)CCCC2)c1ccc(Cl)cc1 | inactive: -14.4% | 
c1ccc(-c2ccc(N3CC4(CCNCC4)C3)cc2)cc1 |  | inconclusive [inhibitor, partial curve]

Compound | activity change, negative = inhibition | Potency
COc1ccc(Cn2nnc3c(=O)[nH]c(C4CCN(C(=O)c5ccccc5Cl)CC4)nc32)cc1 |  | active: 7.94 µM
CC1=C(C(=O)OCCOC(C)C)C(c2cc3c(cc2Br)OCO3)C2=C(CCCC2=O)N1 (stereo not given) |  | inconclusive [inhibitor, partial curve]
COc1ccc(C2c3c(ccc4ccccc34)Oc3ncn4nc(Cc5ccccc5)nc4c32)cc1OC (stereo not given) |  | inconclusive [inhibitor, single point]
CCc1ccccc1NC(=O)CSc1ccsc1[N+](=O)[O-] |  | inconclusive [inhibitor, partial curve, poor fit]
COc1cccc(NC(=O)CN2C(=O)C(c3ccc(C)cc3)=NC23CCCCCC3)c1 |  | inconclusive [inhibitor, single point]
Cn1nnnc1SCC(=O)Nc1ccccc1C(=O)NCc1ccccc1 | inactive: -7.83% | 
S=c1[nH]nc(-c2ccccn2)n1/N=C/c1ccc(Br)s1 |  | active: 7.94 µM
CCN1CCC(O)([C@H](C(=O)O)c2ccccc2)CC1 | inactive: 0.581% | 
O=C(Nc1ccc2cn[nH]c2c1)c1ccccc1F |  | inconclusive [inhibitor, single point]
CC1(C)Cc2ccccc2-c2nnc(SCC(=O)N3CCN(c4ccccc4)CC3)n21 | inactive: -10.3% | 
CN1CC=C2C(C#N)=C(N)C(C#N)(C#N)[C@H](c3cccc(Cl)c3)C2C1 (stereo not given in full) |  | inconclusive [inhibitor, partial curve]
COc1cc(-c2nnc(SCC(=O)N3c4ccccc4Sc4ccccc43)o2)cc(OC)c1OC | inactive: -24.2% | 
Cc1ccc(S(=O)(=O)N(Cc2ccccc2)c2ccccc2C(=O)Nc2ccccc2C(=O)NCc2ccco2)cc1 |  | inconclusive [inhibitor, single point]
O=c1c(-c2ccc(F)cc2)nc2cnc(Oc3ccccc3)nc2n1C[C@H]1CCCO1 |  | inconclusive [inhibitor, partial curve]
Cc1[nH]c(=O)c(C#N)cc1-c1ccccc1 |  | inconclusive [inhibitor, partial curve]
CO[C@@]1(NC(=O)Cc2cccs2)C(=O)N2C(C(=O)O)=C(COC(N)=O)CS[C@@H]21 | inactive: -11.8% | 
Cc1cccc(NC(=S)Nc2c(C)n(C)n(-c3ccccc3)c2=O)c1C | inactive: -5.88% | 
CCCNC(=O)c1c(N)n(-c2ccc(S(N)(=O)=O)cc2)c2nc3ccccc3nc12 |  | inconclusive [inhibitor, partial curve]
COc1ccc(C(c2c(C)[nH]n(C(N)=S)c2=O)C(C#N)C#N)cc1 (stereo not given) |  | active: 31.6 µM
CNc1nc(-c2c[nH]c3ccccc23)cs1 | inactive: -24.2% | 
O=C(c1ccc2c(c1)N(Cc1ccccc1)CCS2)N1CCCCC1 |  | inconclusive [inhibitor, partial curve]
COc1ccc(-c2[nH]c(-c3ccc4c(c3)OCO4)nc2-c2ccccc2)cc1 |  | inconclusive [inhibitor, partial curve]
O=C(O)c1ccc(S(=O)(=O)N=Nc2c(O)[nH]c3ccccc23)cc1 |  | inconclusive [inhibitor, partial curve]
COC(=O)Cc1cc(=O)oc2c(C)c(O)ccc12 |  | inconclusive [inhibitor, partial curve]

Compound | activity change, negative = inhibition | Potency
Cc1ccc(/C=C/C2=Cc3c(sc(NC(=O)CSc4n[nH]c(N)n4)c3C#N)C(C)(C)C2)o1 |  | inconclusive [inhibitor, partial curve]
COc1ccc(/C=C/C(=O)NCc2cn(C)nc2C)cc1COc1ccc(Cl)cc1Br |  | inconclusive [inhibitor, partial curve]
NS(=O)(=O)c1cccc2c1c([N+](=O)[O-])cc1nc(O)c(O)nc12 |  | active: 14.1 µM and active: 15.8 µM
O=[N+]([O-])c1nn(-c2ccc3c(c2)OCCO3)n(O)c1=NCc1ccc(F)cc1 |  | active: 20 µM
COC(=O)C1=C(C(=O)OC)[C@@H]2N(Cc3ccccc3)c3ccccc3[C@@]23C[C@@H](C(=O)OC)N=C3N1 | inactive: -2.71% | 
OC1CCN(c2c3c(nc4cc(-c5ccc(F)cc5)nn24)CCC3)CC1 | inactive: -18.7% | 
O=c1oc2c(CN3CCOCC3)c(O)c(Cl)cc2c2c1CCCC2 |  | inconclusive [inhibitor, partial curve]
N=c1c(C(=O)NC2CCCC2)cc2c(=O)n3ccccc3nc2n1C1CCCC1 |  | inconclusive [inhibitor, partial curve]
N#CC(=C(/N)Sc1ccccc1N)/C(C#N)=C(/N)Sc1ccccc1N |  | active: 28.2 µM
COc1ccc2oc(=O)c(C(=O)N3CCN(c4ccccc4F)CC3)cc2c1 |  | inconclusive [inhibitor, partial curve]
CCCOC(=O)c1ccc(NC(=O)c2ccoc2C)cc1 |  | active: 31.6 µM
CC1CCCN(C(=O)C(C)Sc2nc(-c3ccccc3)cc(C(F)(F)F)n2)C1 (stereo not given) |  | active: 15.8 µM
CC(=O)OC1=C(C#N)Cn2ccc3cccc1c32 |  | inconclusive [inhibitor, partial curve]
Cc1ccc(S(=O)(=O)N2CCN(c3ccc4nnc(-c5ccccc5)n4n3)CC2)cc1 |  | inconclusive [inhibitor, single point]
O=C(CSCc1cccc(Cl)c1)N/N=C/c1ccc(OCC(=O)N2CCCCC2)cc1 |  | inconclusive [inhibitor, single point]
CCOC(=O)c1[nH]c2ccc(OC)cc2c1NC(=O)/C=C/c1ccc2c(c1)OCO2 |  | inconclusive [inhibitor, partial curve]
Cc1[nH]c2ccccc2c1C(=O)CSC(=S)N1CCCCC1 |  | active: 25.1 µM
COc1ccc(OCc2nn3c(Cn4cnc5ccccc54)nnc3s2)cc1 |  | active: 14.1 µM
COc1cccc(CN(Cc2ccco2)C(c2ccc(F)cc2)c2nnnn2C(C)(C)C)c1 (stereo not given) | inactive: -21.3% | 
COc1ccc(N2C(=O)CSC23C(=O)N2CCCc4cccc3c42)cc1 (stereo not given) | inactive: -6.66% | 
COc1ccc(Cc2nnc(SCC(=O)NCc3ccco3)o2)cc1 |  | active: 20 µM
CC1=C(C)CC(C(=O)NNC(=O)c2ccccc2O)C(C(=O)O)C1 (stereo not given) |  | inconclusive [inhibitor, partial curve]

From PubChem BioAssay AID894 (National Center for Advancing Translational Sciences (NCATS), 2007)
